Measured values: paper PMC7819943, “Rice protein-binding microarrays: a tool to detect cis-acting elements near promoter regions in rice”
The list shows a part of the results.

Molecular target: T1, OsWOX13 (Oryza sativa, UniProt Q5QMM3 1-267)
T1 sequence: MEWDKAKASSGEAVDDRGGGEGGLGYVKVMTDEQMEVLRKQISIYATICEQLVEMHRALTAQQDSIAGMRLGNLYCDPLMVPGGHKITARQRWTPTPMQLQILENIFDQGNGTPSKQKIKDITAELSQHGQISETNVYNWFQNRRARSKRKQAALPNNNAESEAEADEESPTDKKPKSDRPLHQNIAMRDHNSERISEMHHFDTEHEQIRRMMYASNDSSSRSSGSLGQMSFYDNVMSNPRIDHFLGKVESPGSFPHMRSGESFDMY
Assay: protein-binding microarray (RPBM); PBS, 2% BSA, 51.3 ng/ul salmon testes DNA, 50 uM zinc acetate, 200 nM TF, 25 C, 1 h; high values mean tight binding
Details: protein: recombinant; tags: N-terminal polyhistidine and DsRed monomer fusion (pET32a); label: CyDye5-dUTP incorporated in the synthesized complementary strand; 3' TTTTT single-stranded linker to array surface; dsDNA, one strand shown
How it was run: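 Binding signal here means per-feature fluorescence intensity in arbitrary units. The values were read on an Axon 4000B scanner after a custom Agilent array, double-stranded by primer extension with Cy5-dUTP, was incubated with 200 nM protein at 25 °C for 1 h in PBS with 2% BSA, salmon testes DNA and 50 µM zinc acetate, then washed. The proteins were transcription factors with an N-terminal polyhistidine tag and DsRed, expressed in E. coli BL21-CodonPlus and purified on Ni–NTA.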

Sequence	binding signal
GGTGAATTGAAACATTATTTTGTAACAAATCACCCACATACGGAGTCACCTAGTGCAG	8020 fluorescence intensity (a.u.)
GACTTAGATTTGAAGAGATCCGTCACTTGAAATCTACCCCCGGAGTCACCTAGTGCAG	3720 fluorescence intensity (a.u.)
TACACGCTCACGCACGAAGTGATTGATAATAGCACACATTCGGAGTCACCTAGTGCAG	6990 fluorescence intensity (a.u.)
TGTCGTGATTAAACCATTAATTAATAATAATTCCAGGTTCCGGAGTCACCTAGTGCAG	48500 fluorescence intensity (a.u.)
GTTGATGAGAAGAACCATGGTGCTATACAAGGTACCATTGCGGAGTCACCTAGTGCAG	6210 fluorescence intensity (a.u.)
CCTCGTTAACTGCAACCCATCGATTGCCACATCTACACCTCGGAGTCACCTAGTGCAG	8360 fluorescence intensity (a.u.)
AATTAATTAACCCGGTAGGTTAGTATAGCACTCTGCAGTTCGGAGTCACCTAGTGCAG	23900 fluorescence intensity (a.u.)
TTTAATATGTTAATGGTGTTGGATAGATATTGTAGCTACTCGGAGTCACCTAGTGCAG	3750 fluorescence intensity (a.u.)
AATGATAAATTGAACAACTAATATGAACATATTAAAACGTCGGAGTCACCTAGTGCAG	30500 fluorescence intensity (a.u.)
AGTTGACAGGCTGCTCGTAAATACAAGCGGCCAATGCTGACGGAGTCACCTAGTGCAG	25700 fluorescence intensity (a.u.)
CAATGGTAAATTTATCCAGTCCAAAGTGAAAATATATGGTCGGAGTCACCTAGTGCAG	3960 fluorescence intensity (a.u.)
TTGTAATGAGATTTTGGTTCAGTGCATGTGATCTTCTGTGCGGAGTCACCTAGTGCAG	3290 fluorescence intensity (a.u.)
TTGACAAATTTTCTAAGTTTGCTCATTTCATTCCTTTAGCCGGAGTCACCTAGTGCAG	6030 fluorescence intensity (a.u.)
GTACTATTCGGCATCAATCACGGCATGTTATGGTCCGTGCCGGAGTCACCTAGTGCAG	10600 fluorescence intensity (a.u.)
GGATGAACTGTCAGCATTTTGATTAGTTTTAAAATGTCAGCGGAGTCACCTAGTGCAG	8740 fluorescence intensity (a.u.)
CGAATCTGATTTGGGTTTTGGGCCTTGTAATTGTGTCGTGCGGAGTCACCTAGTGCAG	10400 fluorescence intensity (a.u.)
TGGGACCTAAATTGAACTTATTTCCTATGTACGAGTGAGACGGAGTCACCTAGTGCAG	11000 fluorescence intensity (a.u.)
TCACCAAAATCAACATGAACTGATCAGTTCTTGTCCAGTACGGAGTCACCTAGTGCAG	10900 fluorescence intensity (a.u.)
TTTCCACATGAATCTCTTAATCAATCACTGATTCCAGATACGGAGTCACCTAGTGCAG	7150 fluorescence intensity (a.u.)
TATTGGAAAATAAACAAAATTGATTAAACATGTTCTATTTCGGAGTCACCTAGTGCAG	18700 fluorescence intensity (a.u.)
TTCTAATAATAATGATTTAAACATTATGTATCTCCAAATTCGGAGTCACCTAGTGCAG	10900 fluorescence intensity (a.u.)

Sequence	binding signal
TATCAATAACAAACTAATGAAATTGCTTTGTTAAACTGTACGGAGTCACCTAGTGCAG	11200 fluorescence intensity (a.u.)
CCCAATTGGTGATTAGATAATCCTGTCACTTTCTTCAAGTCGGAGTCACCTAGTGCAG	54100 fluorescence intensity (a.u.)
TTTCCTTTGAAGAACACTAATTAGCATTTTGGACTGGGTTCGGAGTCACCTAGTGCAG	7120 fluorescence intensity (a.u.)
ATTAAATCGACTATAGATGATTTGAAGCTAATAGTTGACTCGGAGTCACCTAGTGCAG	13900 fluorescence intensity (a.u.)
TCCCATTTGATTAAAATTCTCTGCAAAGCATACCAGTGATCGGAGTCACCTAGTGCAG	10000 fluorescence intensity (a.u.)
ACTTGATTGGGCCGACGATGCACGGCAAGGAGCAGAGGCACGGAGTCACCTAGTGCAG	46500 fluorescence intensity (a.u.)
TTCTCGCTAATGACATGTGATTGGGAGAAATGCGTGGTGGCGGAGTCACCTAGTGCAG	49600 fluorescence intensity (a.u.)
AATGATTCCAAAATTGAGTTTTAAAATTCAAATTTGACTACGGAGTCACCTAGTGCAG	5620 fluorescence intensity (a.u.)
ATGTTGAGTTAATTGTTCACGAGCCTTGTACCTGGTGCCACGGAGTCACCTAGTGCAG	6830 fluorescence intensity (a.u.)
TGCTAATTTATATGTAACACATTTATCAGACCCAGTAGAACGGAGTCACCTAGTGCAG	31700 fluorescence intensity (a.u.)
GGCAATGACAGCAGTTAATGATGGGGATGAGCAGATCGGCCGGAGTCACCTAGTGCAG	18300 fluorescence intensity (a.u.)
AGGTGGAGGATTTAATAGAATTAATTTAACGTATAGATGTCGGAGTCACCTAGTGCAG	3560 fluorescence intensity (a.u.)
ATGATTTCTTACTAGATAGGATTAAGTTTCAAGAGTTAATCGGAGTCACCTAGTGCAG	10600 fluorescence intensity (a.u.)
AAACTAATCGATTAGACATGCTCGTGGTCATGAGCGGCGTCGGAGTCACCTAGTGCAG	4800 fluorescence intensity (a.u.)
TGTAATAAATTTGACATATGTTTCATATTCAAGACAATTTCGGAGTCACCTAGTGCAG	4710 fluorescence intensity (a.u.)
GAAGCTAATACTTAATTAATCACATATTAATAGATTGCTCCGGAGTCACCTAGTGCAG	14200 fluorescence intensity (a.u.)
AAATTGACAAGATAGATCAATATATAATATATCACTACACCGGAGTCACCTAGTGCAG	10200 fluorescence intensity (a.u.)
AGCGTCGCCTTAATTGGCCTTCTAAGTGGTAGATGCCGTCCGGAGTCACCTAGTGCAG	12600 fluorescence intensity (a.u.)
TCTGCGAAACTCACAATCATATCTCAAATTTATGAGTTATCGGAGTCACCTAGTGCAG	4230 fluorescence intensity (a.u.)
CATGATGGCAATCTCCCGTTGGGCCTACCAGCCGAAAAGTCGGAGTCACCTAGTGCAG	7310 fluorescence intensity (a.u.)
TGTGTCGCAATCAATGATAGAGCAGCCGTTCGATCATCTTCGGAGTCACCTAGTGCAG	12600 fluorescence intensity (a.u.)

Sequence	binding signal
ATATAATTAAATAATATTATCCGTTTTGTAACTATTTGTTCGGAGTCACCTAGTGCAG	23400 fluorescence intensity (a.u.)
TTTACATGAATTTGATTATTCTAACACTAGCTTTTAAGTTCGGAGTCACCTAGTGCAG	3560 fluorescence intensity (a.u.)
CTATCATGTGATAGATTTCCTTAACGTGTACAAGAAACATCGGAGTCACCTAGTGCAG	3590 fluorescence intensity (a.u.)
CAATGTTAATTTAACAAAACTAAATTTACATTTTAGATATCGGAGTCACCTAGTGCAG	25300 fluorescence intensity (a.u.)
ATGGCGTAATTAGGCTCAAAAGATTTGTCTCTCAATTTATCGGAGTCACCTAGTGCAG	7950 fluorescence intensity (a.u.)
GATAATTAGGAATAGATACCTGTAAAATAAGTAGGAGGATCGGAGTCACCTAGTGCAG	19900 fluorescence intensity (a.u.)
CCCACAACTGATTACCATGGATGCAAACAAGTTCCACATGCGGAGTCACCTAGTGCAG	20200 fluorescence intensity (a.u.)
GGTCGTGATTTACGTCTGAATGAGGTTTGTCTTGGTATTTCGGAGTCACCTAGTGCAG	17800 fluorescence intensity (a.u.)
ATAGCTTGTTTAATAATAAATTTATAAGATGACATGATTTCGGAGTCACCTAGTGCAG	8570 fluorescence intensity (a.u.)
GCCCGTAATTAAATGTAATGTGTTGTTCGATTATCCGGTGCGGAGTCACCTAGTGCAG	29200 fluorescence intensity (a.u.)
AGATAGGTGTGGACGGACGTGATTGGCTGCGTATCAGTTGCGGAGTCACCTAGTGCAG	12700 fluorescence intensity (a.u.)
TTCAGTTTCTAGCTGGAAGAGACCTCCTATCATATATTTCCGGAGTCACCTAGTGCAG	53600 fluorescence intensity (a.u.)
GGTCATTCCTGTGTTTTGTAATCCTCTGTTTTATACTTATCGGAGTCACCTAGTGCAG	4120 fluorescence intensity (a.u.)
CAAACTAATTTTGGAAAGCATGAAGCACAAAATTAGAATGCGGAGTCACCTAGTGCAG	6900 fluorescence intensity (a.u.)
AAAATTAACATAATTATCAGTACGGATTCATACTCCGTAACGGAGTCACCTAGTGCAG	29700 fluorescence intensity (a.u.)
ATTAATTAATTAGTCGGCCAACCTAGCTGTTGACTGGGAACGGAGTCACCTAGTGCAG	55900 fluorescence intensity (a.u.)
TGATCAATGAACAATCAATCATGGACATAGATAGATCACGCGGAGTCACCTAGTGCAG	22700 fluorescence intensity (a.u.)
CTGCACTAATTGCACTCCCATCTAAAATTTATCGAATTTTCGGAGTCACCTAGTGCAG	8030 fluorescence intensity (a.u.)
GTCTAATAATTGTTGGTTGTTAGAACTTAGAAGGCTATGTCGGAGTCACCTAGTGCAG	11000 fluorescence intensity (a.u.)
ATATCAAATTTTCTTCCTGTTAATCAGAATAAGAGGTCAACGGAGTCACCTAGTGCAG	4400 fluorescence intensity (a.u.)
GTATAACTGTTGTTTCCTCATTTACAGTTCCCCATTTCCCCGGAGTCACCTAGTGCAG	4710 fluorescence intensity (a.u.)

Sequence	binding signal
TGAAATTGATGAAAATTAGTGTTTCTAAAATTAAATTTCGCGGAGTCACCTAGTGCAG	47800 fluorescence intensity (a.u.)
TGACTCATTAGCATATAATTAATTAAGTATAGCTAATAAACGGAGTCACCTAGTGCAG	7250 fluorescence intensity (a.u.)
TTGATTAATCAATTATGGTATATCTAGAACCATATATAATCGGAGTCACCTAGTGCAG	22700 fluorescence intensity (a.u.)
GATTAATTAGGCTCATTAGATTCGTCTCGCAAATTAGTCCCGGAGTCACCTAGTGCAG	35000 fluorescence intensity (a.u.)
TAAATAGTTCCAATTAGCATTCAGAAATTGGGGTCTAGATCGGAGTCACCTAGTGCAG	14100 fluorescence intensity (a.u.)
AACAGACAGATCATACCCATAATTACAAGTACCGATTATGCGGAGTCACCTAGTGCAG	7320 fluorescence intensity (a.u.)
CATATATAATAGATTAGCTATAAGGTTGGCTACAATTTTCCGGAGTCACCTAGTGCAG	7500 fluorescence intensity (a.u.)
TTTAATTTGTTTATTATACCAGCACTCAGTTAAGATACTTCGGAGTCACCTAGTGCAG	16500 fluorescence intensity (a.u.)
GCTATAAGATTGGCTATAATTTTCTTCTCCTCTCTCTATCCGGAGTCACCTAGTGCAG	26600 fluorescence intensity (a.u.)
GCCCAGATTGATTCGGAAGCAATGGTTTACGATCCAATTCCGGAGTCACCTAGTGCAG	29600 fluorescence intensity (a.u.)
ATGTCTGTCTGTCTAGATTTATTAACATATATATGAATTTCGGAGTCACCTAGTGCAG	4200 fluorescence intensity (a.u.)
ATGATGATGGGAACCATATGAGTTATTAGTGTAGTACTCCCGGAGTCACCTAGTGCAG	4180 fluorescence intensity (a.u.)
GGAATTGACGCACGAAAATTTTGTGACGAAAGGAAAATTTCGGAGTCACCTAGTGCAG	3800 fluorescence intensity (a.u.)
CATAACAAAATTTTAAACACCACTAAATAAGATACTCGCGCGGAGTCACCTAGTGCAG	5230 fluorescence intensity (a.u.)
GGGATGATTTTGTAACTCGATAACAAGTTGAGGGACCTTTCGGAGTCACCTAGTGCAG	17200 fluorescence intensity (a.u.)
CCTGACAGGTCATCTCCTGATTGAAACCAAAATGTTGGATCGGAGTCACCTAGTGCAG	60700 fluorescence intensity (a.u.)
TCTGACATAATGTTCATTCGAAGGAAAATATTTTCTTCCTCGGAGTCACCTAGTGCAG	8340 fluorescence intensity (a.u.)
CATGTGCTAATGACAGGTTAATTAGGCTCAAAAGATTCATCGGAGTCACCTAGTGCAG	12600 fluorescence intensity (a.u.)
CTTCTAATTGTTAAGTAGATGGTCGTTGTCATTGATTCTTCGGAGTCACCTAGTGCAG	15100 fluorescence intensity (a.u.)
CGTAATAATGAATTGAATGCAGAGTTTGGTCAAAGAAAAGCGGAGTCACCTAGTGCAG	6400 fluorescence intensity (a.u.)
TCCTCGATTGATCCGTTTCTTTATATACACACAGTACAACCGGAGTCACCTAGTGCAG	9160 fluorescence intensity (a.u.)
